Test results taken from the supplement of paper PMC3334620.
The full ranking holds about 33,000 sequences; the median of “E-score (-0.5 to 0.5)” is about -0.054, and the highest 2% start at about 0.35. This is one part of the list.

biological target: T1, Stb5 (UniProt P38699); experiment: PBM E-score (8-mer binding enrichment) (E-score (-0.5 to 0.5)); higher = stronger / more preferred TF binding; most listed sequences are background and not binding sites; conditions: protein concentration: 200 nM; construct: GST-full length
T1 sequence: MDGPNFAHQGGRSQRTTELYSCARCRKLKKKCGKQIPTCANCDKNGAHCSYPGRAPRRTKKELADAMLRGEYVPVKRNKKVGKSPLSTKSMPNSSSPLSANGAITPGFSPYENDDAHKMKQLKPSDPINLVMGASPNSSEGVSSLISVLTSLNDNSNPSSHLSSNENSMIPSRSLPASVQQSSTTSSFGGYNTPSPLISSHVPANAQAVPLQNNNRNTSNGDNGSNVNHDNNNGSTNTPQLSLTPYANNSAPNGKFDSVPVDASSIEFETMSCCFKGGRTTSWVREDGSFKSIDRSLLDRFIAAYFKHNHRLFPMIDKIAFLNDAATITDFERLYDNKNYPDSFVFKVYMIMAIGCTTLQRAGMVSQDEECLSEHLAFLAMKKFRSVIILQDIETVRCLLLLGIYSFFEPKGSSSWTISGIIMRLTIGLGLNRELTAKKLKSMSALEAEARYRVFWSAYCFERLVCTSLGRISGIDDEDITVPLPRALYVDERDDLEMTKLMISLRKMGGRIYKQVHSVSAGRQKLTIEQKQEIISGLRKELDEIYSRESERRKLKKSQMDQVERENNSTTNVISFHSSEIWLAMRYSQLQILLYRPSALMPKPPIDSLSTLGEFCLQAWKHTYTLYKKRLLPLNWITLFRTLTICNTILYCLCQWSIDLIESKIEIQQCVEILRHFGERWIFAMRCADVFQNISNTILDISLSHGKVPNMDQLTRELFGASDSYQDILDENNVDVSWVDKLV
Procedure, shortened: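 Detection of bound protein used fluorescent anti-GST, with scans normalised by masliner. The proteins were GST-tagged yeast transcription factors applied at about 100-200 nM to universal all-10-mer Agilent arrays made double-stranded by primer extension. Each ungapped eight-base word, pooled with its reverse complement, was scored with an E-score from the Universal PBM Analysis Suite.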

Row | Sequence | PBM E-score
1 | TCGTTCAA | -0.0843
2 | GAATCCCA | -0.198
3 | CAGGGCCG | 0.237
4 | CGGAGTCA | 0.391
5 | AGTATAAC | 0.228
6 | GGTTAACA | 0.0986
7 | CCCGGCTA | 0.337
8 | CAACCCTC | -0.284
9 | ATTGCTGC | -0.11
10 | AATATCTG | -0.0221
11 | TAGTTCCA | -0.0228
12 | CACTGGGA | -0.362
13 | AATGGTGC | 0.085
14 | AGGGGGGA | -0.38
15 | ATTCTTCA | -0.0547
16 | CGGTACAC | 0.181
17 | GACTGATA | 0.0874
18 | AGCTCCGC | 0.406
19 | AACAAGAC | -0.115
20 | ACTAACGC | 0.0901
21 | ACTGAACC | 0.214
22 | CTGATGTC | -0.0208
23 | GGGCATCA | 0.00165
24 | AACGGCGA | 0.287
25 | ATGACACC | 0.317

Row | Sequence | PBM E-score
26 | ACTCCTAG | -0.158
27 | GGGGCTGA | -0.185
28 | TCGGAACA | 0.0826
29 | AATGGACG | 0.0503
30 | GAGCGTCC | -0.055
31 | AGAGTCGC | -0.188
32 | AAGGGCCT | -0.185
33 | GAAACCGC | 0.211
34 | AATGTTGG | 0.00207
35 | ATTTAACG | 0.207
36 | CGTAGCCC | 0.021
37 | ACGTATCT | -0.0649
38 | CCAATGCC | 0.154
39 | ATCGATTA | -0.0417
40 | GCACTACA | -0.0984
41 | GCTTCACC | -0.00744
42 | CTCATCAG | -0.218
43 | TCTCCCAA | -0.154
44 | ATGTTTAG | -0.0384
45 | AGGATTTA | 0.203
46 | CAGCGTGA | -0.18
47 | AGGACCGA | 0.33
48 | AGTGTCAT | -0.196
49 | AAGATAAA | 0.151
50 | AAGCGGTA | 0.35

Row | Sequence | PBM E-score
51 | ACGCGAGG | -0.141
52 | CCTCTATC | -0.283
53 | GCGCGCGA | 0.0685
54 | ACAGATGT | -0.177
55 | AGTCGACT | -0.416
56 | ACTTGGAG | -0.00682
57 | AGGTTTGC | -0.267
58 | ACTATGGC | -0.106
59 | GGTGCGCA | 0.184
60 | ATACCCAC | 0.0548
61 | ATTCGACG | -0.167
62 | AGTGTGGA | -0.271
63 | TATTCAAA | 0.0234
64 | GACGAAAC | 0.125
65 | ACATTCCC | 0.0919
66 | GCACTGGC | -0.0607
67 | AACGGTAG | 0.0823
68 | ATGCTTAC | -0.266
69 | GATCGTGC | -0.0471
70 | CTTCGAAG | -0.221
71 | GAAAAGCA | -0.133
72 | CACCAGAC | 0.00933
73 | CCGCCGCC | 0.361
74 | AATTGGAG | -0.206
75 | GCAAGCAA | -0.122

Row | Sequence | PBM E-score
76 | CATGCGAC | -0.121
77 | CAAATTTA | 0.00388
78 | ACTCGTCC | -0.168
79 | GAGCACAA | -0.136
80 | AAGGAAGT | -0.0449
81 | ATCTTGTG | -0.099
82 | CCCCGGCC | 0.222
83 | CATAACCG | 0.0347
84 | CGCCTCGA | 0.0565
85 | ATCCTCAG | -0.0825
86 | AACAAAGC | 0.0325
87 | AGTTTCAT | -0.192
88 | ACGCAAAA | -0.126
89 | CCCCTACA | -0.136
90 | GCAGCATA | 0.0489
91 | TACATTCA | -0.297
92 | CCACCGCA | 0.245
93 | GGTTTTAC | 0.282
94 | CCTTCCGA | 0.0635
95 | CCCGCGCA | 0.299
96 | TGACGACA | -0.095
97 | TACAGACA | -0.175
98 | TCTGTCAA | -0.224
99 | CTGTCTGA | -0.0918
100 | ATGTCCGC | 0.443

Row | Sequence | PBM E-score
101 | ATGGTCCA | -0.192
102 | ATAAGGTG | 0.12
103 | GACATCGC | 0.117
104 | TCGGACAA | 0.337
105 | TTAGATAA | -0.164
106 | CGTGCATA | -0.137
107 | GAATTATC | -0.0581
108 | CCCCATCC | -0.117
109 | CACAAAAC | -0.0883
110 | AATCACGA | -0.236
111 | CGGTTTCC | 0.128
112 | CAACAGTC | -0.0549
113 | CTCGTATC | -0.132
114 | AGGTACAT | -0.173
115 | CCCTAGGA | -0.183
116 | AGTTGACA | -0.174
117 | ACCGCATA | 0.259
118 | CCGGCGTC | 0.305
119 | CTCGCGTC | -0.154
120 | CAATATAC | 0.0438
121 | ACACCGAT | 0.447
122 | ACAGACAC | -0.0411
123 | GCTCATCA | -0.0295
124 | CCTACATC | 0.0352
125 | GCCATCCC | -0.162

Row | Sequence | PBM E-score
126 | ACTATTCT | -0.0185
127 | CGTGCTTA | 0.0311
128 | AGTGCTAC | -0.234
129 | CAAGCTGC | -0.0381
130 | CCAAGGAC | 0.0754
131 | CAATAACA | -0.124
132 | AGAATTGC | 0.0225
133 | TGAGCAAA | -0.00076
134 | AGAACGCA | -0.128
135 | TCGATCAA | -0.212
136 | CCCATCCA | -0.358
137 | CGATGCCG | 0.193
138 | CGAGCGGC | 0.318
139 | CAAAGCAA | -0.115
140 | ACTCAACC | -0.136
141 | GCCGGCCA | 0.191
142 | ACCCCAAT | -0.215
143 | GAGCTAAC | 0.00157
144 | AGTCAGTC | -0.236
145 | AATTCCGG | 0.216
146 | CCGAAGAA | 0.118
147 | ACGAACCC | 0.131
148 | TATACTCA | -0.245
149 | GCTCCTCA | -0.0663
150 | ATAATTTC | 0.044

Row | Sequence | PBM E-score
151 | AGTCAGTA | -0.0496
152 | GTGAGACA | -0.132
153 | ATCCTATC | 0.155
154 | GCCAAACC | 0.0718
155 | ATAGGAAA | -0.115
156 | AGTCCTTC | -0.206
157 | GGTTAAGA | 0.122
158 | ACGCAGAG | -0.218
159 | CAGGCGAC | -0.148
160 | AATGCTAA | -0.133
161 | GGCGATTA | 0.12
162 | AGCAAAGG | 0.00453
163 | AGTGTGGG | 0.0385
164 | CTTTTATC | 0.161
165 | GAAACTCC | 0.24
166 | ATTTCGAA | 0.0569
167 | CTTGTCCC | 0.0601
168 | GGTGAAAC | 0.186
169 | AGTAAGAC | -0.025
170 | GTACGAGA | -0.0711
171 | TCAGATCA | -0.15
172 | ACATGACC | -0.152
173 | AGTAACTC | 0.106
174 | GTCCCACA | 0.0294
175 | AACTTGAG | -0.19

Row | Sequence | PBM E-score
176 | ATGTGCTA | 0.138
177 | CGACCATC | 0.00746
178 | CATCCACA | -0.14
179 | ACGCTAAG | -0.215
180 | GGACAGGA | -0.0731
181 | ATCACGAT | -0.225
182 | GTAGTACA | -0.138
183 | GTGTGAAA | 0.0202
184 | ATCGAAGG | -0.0624
185 | CCCACCGA | 0.118
186 | GGCAGATA | 0.0829
187 | GCCGTCGC | 0.281
188 | CTATCTGA | -0.167
189 | CGATTTCC | 0.0717
190 | CAGGTCAC | -0.205
191 | ACGCTTTA | -0.303
192 | TAATCTGA | -0.0492
193 | ATGGAGAC | -0.0229
194 | ATTATATC | 0.103
195 | CATGCACC | 0.0407
196 | CTCGAGTC | -0.021
197 | GAGCCCAA | -0.127
198 | GGTATGAA | 0.0355
199 | CTGCGTGA | -0.132
200 | AAGATTGC | -0.246

Row | Sequence | PBM E-score
201 | GGGTTGCA | -0.124
202 | CGGTATTC | 0.275
203 | CCAGATAG | -0.314
204 | AAAGTTAT | -0.0717
205 | CGAAATAC | 0.104
206 | GTTGCGTA | -0.144
207 | AAGCTATA | 0.0236
208 | CAAGGGTC | 0.0197
209 | GGCTCTAA | 0.191
210 | AGCAAATA | -0.0577
211 | CAGCCATG | -0.303
212 | CGTAACGC | 0.0528
213 | GCAGCTCC | -0.193
214 | CCCGCTTA | 0.229
215 | AGGTCAAG | -0.193
216 | TACTAGAA | -0.0572
217 | GGTTAGAA | 0.0993
218 | ATCTCGTA | -0.0738
219 | GCTAGCTA | -0.293
